Experimental data as given in the RNAGym collection of RNA variant scans (doi:10.1101/gad.245936.114).
Variants at the background level are over-represented here.

B1: tRNA (parent)
chain: CUCUCGGUAGCCAAGUUGGUUUAAGGCGCAAGACUUUAAUUUAUCACUACGAAAUCUUGAGAUCGGGCGUUCGACUCGCCCCCGGGAGAUUUUUUCCUCGAGCAA

Variants of: B1
Assay: nonsense suppression (GFP-seq) (ratio to wild type); higher = more function; SUP4oc tRNA, yeast GFP reporter sort-seq
Procedure, shortened: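 Sorted GFP/RFP bins of yeast were each Illumina-sequenced with a phred ≥30 cutoff; the cells held a genome-integrated ochre-suppressor tRNA variant from a library with ~3% random mutations, a galactose-driven GFP ochre reporter, and RFP. Culture was in raffinose/galactose medium containing 80 mg/L adenine. Nonsense suppression, termed GFPSEQ, is the median GFP/RFP of the bins weighted by each variant's estimated cell share per bin, relative to the unmutated parent tRNA, for variants reaching ≥100 reads and ≥30 cells.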

Nonsense suppression, 0.0359:
U2C A60C

Nonsense suppression, 1.01:
U2C U4C

Nonsense suppression, 0.0357:
U2C A13U

Nonsense suppression, 0.0638:
U2G A13U

Nonsense suppression, 0.0677:
U2G A9U

Nonsense suppression, 0.0451:
U2A U55C

Nonsense suppression, 0.203:
U2C U21C

Nonsense suppression, 0.18:
U2A C68U

Nonsense suppression, 0.0437:
U2A C29U

Nonsense suppression, 0.0435:
U2C U17A

Nonsense suppression, 0.0448:
U2A G61A

Nonsense suppression, ≤ 0.026:
U2A C27U A31G U57C
U2A C27U G32A
U2A C29A C56A A60U
U2A C29G
U2A C29G G61C G78A
U2A C34A G78U G86U
U2A C34G
U2A C34G C75A
U2A C34U A87U
U2A C56A A62G
U2A C56G A87C
U2A C68U U70C
U2A C75U C77U
U2A C79G
U2A G6C A23C U76C
U2A G6C C83U
U2A G7A A13G U22G C29U U63A U71C
U2A G7C A13C
U2A G7C G73C
U2A G7U G26U A31G G65C C72G
U2A G7U G26U A31G G65C C72U
U2A G10A
U2A G10C U21A
U2A G10U G19U U22G A31U G67C
U2A G10U G25A C83G
U2A G15A G66C G85U
U2A G15U C64G C80A
U2A G15U G78C
U2A G18C A54C C68A
U2A G18U G67U
U2A G19A A74G
U2A G25A A33G G59A G88C
U2A G26C A30U
U2A G32C
U2A G32C C79G
U2A G59U C80A G84A
U2A G61U G78C
U2A G65U
U2A G66C A89G
U2A G66U
U2A G67C G84C
U2A G69C C72G U76C G88A
U2A G84A
U2A G85A
U2A G86A
U2A U4A A87C
U2A U4A C68U C77A
U2A U4G A13U U22C A33G
U2A U4G C79A G86U
U2A U4G G18A
U2A U4G U70C
U2A U8C A9G U21A
U2A U8C A9U A31G C64A C77A C80A G86C
U2A U16A G59U
U2A U16C
U2A U17A
U2A U17A U63A U76C
U2A U17G G18U A24C C27G G59U G86A
U2A U20A A31U
U2A U20C A24U
U2A U20C A30G U35G
U2A U20G
U2A U20G G28U C64U
U2A U21A C34U G86A
U2A U21G C68G
U2A U21G C79A C83G
U2A U21G G65U
U2A U22A U55A G59A G69A
U2A U22C U35G U57A A62C
U2A U22G
U2A U22G U35C C56U A89U
U2A U35A C56A G66A G69A
U2A U55C C77G
U2A U57A A62G G67U
U2A U57C
U2A U63C A74G
U2A U71A U76A
U2A U71C G84C A87U
U2A U76A
U2C A9G G66C G67U
U2C A9G G84A
U2C A9U U76A
U2C A13C U20G U55C G66U
U2C A13C U21C C27G G32U U57C G88A
U2C A13U C72A
U2C A14G U16C G19C A33U
U2C A23U G78C
U2C A24C A31G G84C
U2C A30G
U2C A30U G32A G67C G73U
U2C A31G C83A
U2C A33C
U2C A33U U55C C77G G78A
U2C A54C
U2C A54G A60C
U2C A54U C56U C83U
U2C A60C C75U
U2C A74G
U2C C3A A23U G69C G73C C79G
U2C C3A A60G
U2C C3A C27U C83A
U2C C3A U57G U71C
U2C C5A C75G C83A
U2C C5A G88U
U2C C5G
U2C C5G G10U G88A
U2C C5G G86C
U2C C5U
U2C C11A C27A A33U
U2C C11A U71G
U2C C11G C12U
U2C C11U G73U U76G G85A
U2C C12A A23U A60U U76A
U2C C12U G61U U63A
U2C C27A
U2C C27A C82U
U2C C27A G65U
U2C C34A A62U G88U
U2C C34U G69C A89G
U2C C56A
U2C C56G C83G
U2C C56G G65A C82G
U2C C68A
U2C C75G C81G
U2C C81A
U2C C83A G86A A87C
U2C G6A A23C C81G
U2C G6U C29U
U2C G7C G26U U70A
U2C G7U A62U
U2C G7U G26U C34A
U2C G10U A24G
U2C G15A A54U
U2C G15A C29U
U2C G15A G32C
U2C G18C G25U A54C U57C G61U U70G
U2C G18U
U2C G18U G84C
U2C G19C U35A
U2C G19U
U2C G25U A33U U57G
U2C G25U U35G C75A
U2C G26C U58G G66A G67U
U2C G26U U76A
U2C G28U
U2C G28U G66A C80G G85A
U2C G32A A54G
U2C G59A
U2C G59A C82A
U2C G66C
U2C G84A A89G
U2C G88C
U2C U8A A24C A89C
U2C U8A C29G U70C C82G
U2C U8A G15U C56A
U2C U8C A23G C56U G65C
U2C U8C G15U
U2C U16A G59U
U2C U16C G26A C82A A89G
U2C U16G A24U U63C
U2C U16G C27A
U2C U21C A62C G66C
U2C U22C A23U C34U
U2C U22C C56U U58A U76G
U2C U35A
U2C U55C C77A
U2C U58A A60C
U2C U58A G86C
U2C U70G
U2C U71G
U2G A9C G10C G66C
U2G A9G U55G
U2G A9U G67C
U2G A13C G66U
U2G A13G A60U
U2G A14C G84C
U2G A14G G61U
U2G A23G C27U U70C C75A
U2G A23U
U2G A23U U58G
U2G A24C G61C
U2G A24G A89C
U2G A30U A60C
U2G A31C C75A
U2G A31C G32U U57C
U2G A31G A33G U57A G66A
U2G A31G G69A C80U C81A
U2G A31G G78A
U2G A31U
U2G A33U U55G G73A
U2G A54G A62C G85A A89G
U2G A60U
U2G A87G
U2G A89G
U2G C3G A54U U76C
U2G C3U
U2G C3U C27U
U2G C5A A23C A30C U35C C64A
U2G C5U C27U U35G
U2G C11A G84C
U2G C11G C83U G85C
U2G C11U
U2G C11U U21G
U2G C11U U55G A60U C82G G86C G88U
U2G C12A U57A C68G
U2G C12U C29U G61C
U2G C12U G61C
U2G C29A A30C G85U
U2G C29A A54C
U2G C29U
U2G C34A A62G
U2G C34A U57C
U2G C34G A87G
U2G C34U G86U
U2G C34U U76G G85C
U2G C56G C83A
U2G C56U
U2G C56U G61C U71G
U2G C64U C82G
U2G C68A
U2G C77A
U2G C77U
U2G C79U
U2G C80U
U2G C83G
U2G G6A G18U C29G G61A G65A
U2G G6C G18A G67C G86A A87G
U2G G6C G18A G67C G86A A87U
U2G G6U G10U
U2G G6U G85U
U2G G7C C29G G65C
U2G G7C C34U G65C
U2G G7U C27A G28U
U2G G10U U63G G84C
U2G G15U C68U
U2G G15U C81G A89G
U2G G18U C34G
U2G G18U G26U C75A
U2G G19C U22C C68A
U2G G19U
U2G G25A G73A G85A
U2G G25U G73C C79G
U2G G26C G65C C77U
U2G G26C G86A
U2G G28A A54G C68G
U2G G28A A62C U63A U71C A87U
U2G G59A
U2G G59A G69A
U2G G59C G85C
U2G G61C G65C A89U
U2G G61U G67C
U2G G67C
U2G G67U
U2G G86C
U2G U4A
U2G U4A C68A
U2G U4G C79A G85C
U2G U4G G7A C56G
U2G U8A
U2G U8A A87G
U2G U8A C12A A30G G59U G88C
U2G U8A G10A G69U G78C
U2G U8C U17C
U2G U8C U22G G61U
U2G U16A C81A
U2G U16C A24G
U2G U16G U22G A23U
U2G U17A G25U G65A
U2G U17G G19U A23C G86C
U2G U20A U63C U76C
U2G U55A
U2G U55A C81A
U2G U55A G85U
U2G U55G
U2G U57C C72A
U2G U57G
U2G U63A U71G G84U
U2G U70C
U2G U70G
U2G U76C C79A
C3A A9G
C3A A9G G61A
C3A A9U A13C G66C U71A
C3A A9U A60U U76A C79G
C3A A13C G84C
C3A A13G
C3A A13G G86U A87G
C3A A13U C29G A89U
C3A A13U U21C
C3A A14U
C3A A14U A24C C34G G61A C75U U76C A89C
C3A A14U U17A A62U
C3A A23C
C3A A23C G61A G73A
C3A A23C G78A
C3A A24G G32C A89U
C3A A24G U70C
C3A A24U C83G
C3A A24U G25C
C3A A30G A31U C75U
C3A A31C C79A
C3A A31C C79G
C3A A31C U35C G65C
C3A A31G A54C
C3A A31U G69U
C3A A33U
C3A A33U A60U
C3A A33U C79U
C3A A60C
C3A A62C C75G
C3A A62C U63A U76G
C3A A62U
C3A A62U C64G U76G
C3A C5A A23U A62C
C3A C5A U63A
C3A C5G G15C A24U G66C G78C
C3A C5G U35A U57C G59U G61C G66U
C3A C5G U57C U70A C80A
C3A C5U C12G G59C

Nonsense suppression, 0.221:
U2A U22G C29A C34A

Nonsense suppression, 0.25:
U2A C34G G85C A89C

Nonsense suppression, 1.13:
U2C C68U A87G

Nonsense suppression, 0.205:
U2C U4C A13G
